A compilation of properties of binary mixtures (doi:10.1021/ie402890r)
The densities may have been worked out from excess volumes.

Test: xn = mol fraction of the nth substance listed
Settings: 101 kPa

CCC(=O)[O-].CCC[n+]1ccn(C)c1 + O
mass density [kg/m3]
Settings	288.15 K	293.15 K	298.15 K	303.15 K	308.15 K	313.15 K	318.15 K	323.15 K	328.15 K
x2 = 0	1058.8	1055.6	1052.6	1049.6	1046.4	–	1040.3	1037.2	–
x2 = 0.0815	1061.2	1057.9	–	1052	1048.8	1045.7	–	1039.6	–
x2 = 0.1091	1062	1058.8	1055.8	1052.8	1049.6	1046.6	1043.5	1040.4	–
x2 = 0.1351	1062.9	1059.8	1056.7	1053.7	–	1047.5	1044.5	1041.4	1038.4
x2 = 0.1599	1063.8	1060.6	1057.6	1054.6	1051.5	1048.4	1045.3	1042.2	1039.3
x2 = 0.1834	1064.6	1061.5	1058.4	1055.4	1052.3	–	1046.1	–	–
